Assay results from ChEMBL document CHEMBL4888484, “Replenishing the malaria drug discovery pipeline: Screening and hit evaluation of the MMV Hit Generation Library 1 (HGL1) against asexual blood stage Plasmodium falciparum ,using a nano luciferase reporter read-out” (2022).
Hit rate of the full screen: of about 150,000 compounds, about 540 (0.36%) showed an effect of 50% or more. The list shows a part of the results.

system: Plasmodium falciparum; assay: Primary screen in NF54 nanoGlo assay, in single point, at 2uM, 72h; a lower Z score goes with more inhibition; assay type: functional, Erythrocyte; details: timepoint 72 hour

SMILES | % Inhibition | Z score
Cc1cccc(Nc2nc(C(=O)N3CCCC[C@@H]3C)nc3ccccc23)c1 | 11% | -2.13
Cc1cc(N2CCN(Cc3ccccc3)CC2)c2nncn2n1 | 4% | -0.75
COc1ncccc1N(C)C(=O)c1cc(C)n(-c2cccc(F)c2)n1 | 0% | -0.01
Cc1cc(Cn2nnc(C(=O)NS(=O)(=O)CC3CC3)c2C)on1 | 5% | -0.88
O=S(=O)(NCc1cccc(-c2nccs2)c1)c1cccs1 | -3% | 0.41
FCC[C@H]1CCCN(c2nnc(-c3ccon3)s2)C1 | 2% | -0.3
COc1ccc(C(=O)N2CCCCCNC(=O)[C@@H]3CCCC[C@@H]32)cc1 | 2% | -0.31
CC(C)c1c2cc3c(cc2nn1-c1ccccc1)OCCO3 | 38% | -5.43
COc1ccc(C(=O)NCCNS(=O)(=O)c2ccc(Cl)c3nonc23)cc1OC | -5% | 0.71
COc1ncccc1CNC(=O)c1ccc2c(c1)OCCO2 | 1% | -0.14
COC(=O)c1cc(S(=O)(=O)N2CCC[C@H]2C(=O)Nc2ccc(C)c(C)c2)cn1C | -11% | 2.05
C=CCn1cc(CN(C)[C@@H](C)c2ccon2)c(C)n1 | -2% | 0.32
CC(C)n1cnnc1CC1CN(C(=O)Nc2ccccc2F)C1 | 6% | -0.96
O=C(OC[C@H]1CCCCN1)N1CCCCC1 | 6% | -0.66
O=C(NCc1ccc(N2CCCC2=O)cc1)[C@@H]1CCCO1 | 6% | -0.83
Cn1ccnc1C(O)C1CCCN(Cc2cc3cc(F)ccc3o2)C1 (stereo not drawn) | -9% | 1.64
N#Cc1ccc(N2CCC(CN3CCCCC3=O)CC2)cn1 | -2% | 0.3
C[C@@H](CNC(=O)CN(C)S(C)(=O)=O)c1ccsc1 | -4% | 0.44
O=C1c2cnn(-c3ccccc3)c2CN1CC(=O)N1CC[C@H]1C1CC1 | -2% | 0.34
Cc1noc(C)c1N(C)C(=O)C[C@@](C)(C(=O)O)c1ccc(Cl)cc1 | -2% | 0.31
Nc1ncc(-c2cccc(CO[C@H]3CCOC3)c2)c(C(F)(F)F)n1 | -5% | 0.84

SMILES | % Inhibition | Z score
Cc1ccnc(Cn2nc(C(F)F)cc2C(F)F)n1 | -2% | 0.31
CCCn1nnc2cc(S(=O)(=O)N3CCC[C@H](C(=O)NCc4cccc(OC)c4)C3)ccc21 | -24% | 2.1
Cc1nnc(NCc2cc(-c3ccccc3)n[nH]2)o1 | -16% | 1.37
CC(C)C[C@H](NC(=O)C1=CCCCCC1)c1nc(-c2nnc[nH]2)no1 | -2% | 0.22
CC(C)(C#N)C(=O)NCCNc1ccccc1 | -9% | 1.17
CCN(CC)c1ccc(NC(=O)N2CC[S+]([O-])CC2)cn1 | 1% | -0.14
C[C@H](O)CN(CC(F)F)C(=O)c1cc(O)ncc1Br | -10% | 1.02
CN(C[C@H]1CCc2ccccc21)C(=O)C(C)(C)C(=O)O | -2% | 0.28
O=C(NCC1CCCO1)C1COC2(CCN(C(=O)c3ccc(F)cc3F)CC2)N1C(=O)c1ccc(F)cc1 (stereo not drawn) | -6% | 1.23
CCn1ncc(CNC(=O)Nc2nc(C)c(Cc3cccc(Cl)c3)s2)n1 | -4% | 0.46
O=C(Nc1ccccc1)c1ccc2c(c1)C(=O)N(CCC1=CCCCC1)C2=O | 31% | -3.47
CCCN1C[C@H]2CN(C(=O)Cc3c(F)cccc3Cl)C[C@@]2(C(=O)O)C1 | -9% | 1.83
Cc1cccc(C(=O)Nc2ccc3oc(C4CC4)nc3c2)c1O | 29% | -3.8
COc1ccc(CCN[C@H]2CCC(=O)N(CC3CC3)CC2)cc1 | -5% | 0.88
CCOC(=O)[C@@H](NC(=O)CCc1cn[nH]c1)C1CCCCCC1 | -6% | 0.77
O=C(N[C@@H]1CC[C@H]2CCOc3ccccc3C(=O)N3CCN(Cc4ccc(Cl)c(F)c4)C[C@H]3C(=O)NC[C@H]1O2)C1CCOCC1 | -6% | 0.71
Cc1nc2c([nH]1)CN(C(=O)c1ccc(-c3nc[nH]n3)cc1)CC2 | 1% | -0.15
N#C[C@H](c1c(F)cccc1Cl)N1CC[S+]([O-])CC1 | -1% | 0.13
CC(C)(O)Cn1nc(C2CC2)nc1-c1ccc2ccccc2c1 | 1% | -0.1
O=C(NCCc1cccs1)c1cccnc1 | 9% | -1.01
Cc1nc(C)c(C(=O)NCCc2noc(C(C)C)n2)o1 | -5% | 0.57

SMILES | % Inhibition | Z score
O=C(C1CN(C(c2ccccc2)c2ccccc2)C1)N1CCCC1 | 6% | -0.81
CN(C(=O)Cn1ccc2ccccc2c1=O)[C@@H]1CCC[C@H]1O | -14% | 1.14
COc1ccc2c(c1)CCC[C@@]2(O)CNC(=O)c1ccoc1 | -25% | 3.2
Cc1nn(C)c(N)c1C(=O)N1CCC(c2nc3cccc(C)c3o2)CC1 | -15% | 2.81
Cc1nnc2n1CCN(Cc1ccc3c(c1)CCO3)[C@H]2C(=O)N(C)C | -4% | 0.58
Cc1ccc(CC(C)NC(=O)CC2CCS(=O)(=O)C2)s1 (stereo not drawn) | 1% | -0.07
CCCc1nc(C)cc(N2CC[C@H](N(C)C)C2)n1 | -2% | 0.3
CN(C)C(=O)CN1CN(c2ccccc2)C2(CCN(C(=O)Nc3ccc(Cl)cc3Cl)CC2)C1=O | -13% | 1.73
COc1ccc2[nH]c3c(c2c1)C[C@@H](NCc1cccnc1OC)CC3 | -3% | 0.39
N#Cc1ccc(F)cc1Cn1ncsc1=O | 1% | -0.18
O=C(Nc1ccc(S(=O)(=O)N2CCCC2)cc1)[C@@H]1CC=CCC1 | -8% | 1.54
CC[C@H](O)Cn1nnc(-c2ccc3ncccc3c2)n1 | -5% | 0.77
Cn1cc(CCCN2CCC3CCC(C2)N3C(=O)OC(C)(C)C)cn1 (stereo not drawn) | 0% | -0.02
Cc1ccccc1S(=O)(=O)N1CCc2nc(-c3ccc(Cl)cc3)ncc2C1 | -2% | 0.37
COc1ccc(-c2csc(N3N=C(C)[C@H](/N=N/c4ccc(N(C)C(C)=O)cc4)C3=O)n2)cc1 | -28% | 3.26
O=C(C1CCCC1)N1CCOc2ccc(N3CCOCC3)cc2C1 | 7% | -1.38
CCN(CC)C(=O)CCCNc1ncccc1Cl | -3% | 0.29
Cc1ccc(CNC(=O)CN2C(=O)CCc3cc(S(=O)(=O)N4CCCCC4)ccc32)cc1 | -10% | 1.84
Cc1ccc(-c2cc(C(N)=O)ccn2)c2ccccc12 | -17% | 1.67
O=S(=O)(c1ccccc1OC(F)(F)F)N1CC(n2nccn2)C1 | 15% | -1.71
CCN(CC)C(=O)Cn1cc(C(=O)NCc2ccc(N3CCOCC3)cc2)nn1 | 0% | 0.03

SMILES | % Inhibition | Z score
Cc1ccc(S(=O)(=O)N2CCc3cc(F)cc(C)c3C2)cn1 | 0% | 0.02
COc1ccc(C(=O)c2c(N(C)C)ccc3ccccc23)cc1 | -6% | 1.19
CN(CCN1CCCC[C@@H]1CS(N)(=O)=O)Cc1ccccc1 | -5% | 0.59
CCn1cnnc1C(C)NC(=O)CCN1C[C@@H](C)O[C@@H](C)C1 (stereo partly drawn) | 16% | -2.08
COc1c2ccoc2nc2c(OC)c(OC3OC(C)C(O)C(O)C3O)ccc12 (stereo not drawn) | -5% | 0.66
COc1cccc([C@H](CN2CCN(S(=O)(=O)c3ccc(F)c(Cl)c3)CC2)OCc2ccc(C)cc2)c1 | -8% | 1.2
CC(C)n1ncc2c(C(=O)N3CCc4ccccc43)cc(-c3ccc4c(c3)OCCO4)nc21 | -15% | 1.38
CN(Cc1cnn(C)c1)C(=O)c1cc(Cl)c(Cl)n1C | -2% | 0.48
O=C1N[C@H]2CCC[C@H]2C(=O)N1CCc1ccccn1 | -7% | 1.04
CCC1(CC)CN(C(=O)[C@H](C)c2cccs2)CCS1(=O)=O | 4% | -0.62
CC[C@@H](CNC(=O)c1cc2cccc(Cl)c2n1C)N1CCOCC1 | -3% | 0.52
O=C(c1ccoc1)N1CCn2nccc2C1 | -12% | 1.88
COC(C)(C)CCNC(=O)c1cccc2c1CCC2=O | 9% | -1.67
CCc1ccc(C(=O)N2CCN(C(=O)c3cccc(OC)c3)CC2)[nH]1 | -13% | 1.87
CC(=O)N1CC(C(=O)NCCc2ccccn2)CCC1c1ccc(F)c(C)c1 (stereo not drawn) | 3% | -0.31
Cn1ncnc1CNC1(c2cc(C(F)(F)F)ccc2Cl)CC1 | 6% | -1.16
O=S(=O)(Nc1ccccc1-c1cn2c(n1)CCCC2)c1ccc(-n2cccn2)cc1 | -4% | 0.46
CCCNC(=O)[C@H](C)NC(=O)Nc1ccc(F)cc1C | -11% | 2.07
COc1cccnc1CNC(=O)[C@@H]1CCCc2[nH]ncc21 | -4% | 0.46
Cc1ccc(N2C(=O)c3[nH]nc(-c4ccc(Br)cc4)c3[C@@H]2c2ccco2)cc1 | -12% | 1.8
CCCc1nc(N[C@H](c2nccn2C)C(C)C)c2cnn(C)c2n1 | 2% | -0.41
